SMILES strings stand for the structures. Among all 150,000 compounds or so, about 540 (0.36%) showed an effect of 50% or more. The list shows a part of the results.

This experiment relates to Plasmodium falciparum. Put plainly: Primary screen in NF54 nanoGlo assay, in single point, at 2uM, 72h; a lower Z score goes with more inhibition. Type of experiment: functional, Erythrocyte. The conditions noted are these: timepoint 72 hour.

`O=C(NCCc1c[nH]c2ccccc12)c1coc(Cn2cnc3ccccc32)n1`: the % Inhibition – broadly, the change of the read-out against control, counted positive when it falls – was -15% and the Z score is listed as 2.18. For `COCCc1nc(-c2ccc3[nH]nnc3c2)n([C@H]2CCS(=O)(=O)C2)n1`, in that order: -6% and 0.71.

Consider `COc1nc(N2[C@@H]3CC[C@H]2C[C@@H](OC)C3)ncc1F`, for which the “% Inhibition” value is reported as 23% and the Z score is listed as -4.8.

For the molecule `CC(C)CC(=O)NCc1nnc(C(=O)Nc2cccc(F)c2)s1`, the “% Inhibition” value worked out at 14% and the Z score was -1.65.

In the case of `Cc1n[nH]c(C)c1-c1cnc2nnc(C)n2c1`, the “% Inhibition” value is -6% and the Z score amounted to 1.12. In the same order, the values of `Cc1nc([C@H](C)NC(=O)CCCn2cccn2)n[nH]1` are -11% and 1.53. Regarding `COC1(CNc2cccc(C)n2)CCOCC1`, the “% Inhibition” value is recorded as 9% and the Z score is -1.69. Regarding `COc1cccc(NC(=O)Cn2nc3n(c2=O)CCN(Cc2ccccc2F)C3=O)c1`, the “% Inhibition” value was -11% and the Z score came out at 1.26. Turning to `COCCC1(CNS(=O)(=O)CCN2CCOC2=O)CCCC1`, the “% Inhibition” value is reported as -4% and the Z score was found to be 0.72. Consider `O=C(NCCc1ncc[nH]1)c1ccc2c(Br)cccc2c1`, for which the “% Inhibition” value is on record as -12% and the Z score was determined as 1.52. Regarding `Cc1cc(C(=O)N[C@@H](CO)c2sccc2C)cc(C)n1`, the “% Inhibition” value was -3% and the Z score came out at 0.51. On to `CC(CNC(=O)N1CCOC(C)C1)CN(C)C(=O)OC(C)(C)C` (centres undefined), for which the “% Inhibition” value is -12% and the Z score came to 1.25. In the case of `O=C(Cc1cccs1)N[C@H]1CCc2ccccc21`, the “% Inhibition” value came to 3% and the Z score is -0.46. Regarding `COC(=O)[C@@H]1C[C@H](O)CCN1C(=O)c1c(C)cccc1OC`, the “% Inhibition” value was -12% and the Z score is 2.04. In the same order, the values of `COc1cccc(CC(C)(C)NS(=O)(=O)CC2(C#N)CC2)c1` are -8% and 0.77. For `Cc1cccc(Oc2nc3ccccc3nc2N2CCCCCC2)c1C`, in that order: -8% and 0.96.

With `NC(=O)c1ccc(N2CCN(C(=O)C[C@H]3CCc4ccccc4C3)CC2)cc1`, the “% Inhibition” value is given as -2% and the Z score was 0.22. `Cc1cccc(C(=O)N[C@H]2CCO[C@H](c3ccccn3)C2)c1C`: the “% Inhibition” value is -4% and the Z score was determined as 0.55.

As to `Cc1cnc(COc2cc(Br)cc(F)c2F)o1`, the “% Inhibition” value is recorded as -8% and the Z score is given as 0.84. In the case of `CCn1ccc(C(=O)N2CCN(Cc3ccco3)[C@@H]3CS(=O)(=O)C[C@@H]32)n1`, the “% Inhibition” value is listed as -24% and the Z score is 2.4. For `Cc1ccc(-c2nc(CC[C@H]3CCCO3)n(CC(F)(F)F)n2)o1`, in that order: -10% and 1.88.

Turning to `COc1ccc(C(=O)N2CC(F)(F)C[C@H]2COc2ccc3c(c2)CCC3)cn1`, the “% Inhibition” value is recorded as -6% and the Z score was determined as 1.05. As to `CCc1nccn1[C@H]1CCCN(c2cccc(C(=O)O)n2)C1`, the “% Inhibition” value was -5% and the Z score worked out at 0.96. In the same order, the values of `O=C(Nc1nnc(-c2ccoc2)[nH]1)c1ncccc1Br` are -2% and 0.22. For `CCCN(CC(C)(C)O)S(=O)(=O)C1CC1`, in that order: 0% and -0.07. For `CC1CCN([C@H](NC(=O)c2ccco2)C(=O)c2ccccc2)CC1`, in that order: -13% and 2.02.

Take `CCC(CC)C(=O)N1CCC(NC(=O)Nc2ccc(OC)c(N3CCCC3=O)c2)CC1`: the “% Inhibition” value is -15% and the Z score is 1.5.

Turning to `COc1ccccc1CC(=O)NCc1ccccc1CN1CCC(C)CC1`, the “% Inhibition” value is given as -2% and the Z score is on record as 0.36. In the same order, the values of `Cc1ccc(NC(=O)C[C@@H]2NC(=O)NC2=O)cc1OCC(F)F` are -12% and 2.22. For `O=C(c1ccc(Br)o1)N1CC(S(=O)(=O)Cc2ccco2)C1`, in that order: -23% and 2.96. `COc1ccc2c(c1)N1CCN(CC(=O)N3CCOCC3)CC1C(C(=O)N1CCN(C(C)=O)CC1)C2` (centres undefined): the “% Inhibition” value was -1% and the Z score is reported as 0.14.

In the case of `c1cc(CN2CCN(C3CCCCCC3)CC2)ccn1`, the “% Inhibition” value (2 µM) is -11%.

Consider `CC(C)n1ccc(CN2C(=O)N[C@@H](Cc3cc(Cl)cc(Cl)c3)C2=O)n1`, for which the “% Inhibition” value is recorded as -5% and the Z score stood at 0.62. Consider `Cc1cccc2nc(NC[C@]3(c4nccn4C)NC(=O)NC3=O)oc12`, for which the “% Inhibition” value is given as -1% and the Z score is given as 0.08.

Turning to `O=C(Nc1ccon1)c1cc(-c2ccccc2Cl)nc2ccccc12`, the “% Inhibition” value was found to be 3% and the Z score was -0.39. Regarding `Cc1ccccc1C1CC(NC[C@](C)(O)CN2CCOCC2)C1` (some centres undefined), the “% Inhibition” value is recorded as -8% and the Z score was 1.19. For `CC(C)[C@H]1CCO[C@H]1C(=O)NCc1cn(C)nc1C(F)(F)F`, the “% Inhibition” value was -7% and the Z score turned out to be 0.76. Regarding `Cc1c(O)cccc1C(=O)NCCCCN1CCCCCC1`, the “% Inhibition” value is 5% and the Z score is on record as -0.67. `c1nc2c(cc1-c1nc([C@H]3CCOC3)no1)CCCC2`: the “% Inhibition” value was -7% and the Z score was determined as 0.95. In the case of `O=C(NCc1nc(-c2ccc[nH]c2=O)no1)c1ccno1`, the “% Inhibition” value is on record as -15% and the Z score is given as 2.62. In the same order, the values of `O=C(Nc1ccccc1N1CCCC1)C1CCN(S(=O)(=O)c2ccc(Cl)cc2)CC1` are 3% and -0.25. Take `O=S(=O)(Cc1ccccc1)Nc1ccnn1Cc1cccnc1`: the “% Inhibition” value was -5% and the Z score stood at 0.5. For `Cc1nsc2ncc(C(=O)N3CCC(C)CC3)c(N3CCC(C(=O)Nc4cc(F)ccc4F)CC3)c12`, in that order: 60% and -4.06. In the case of `Cc1noc(C)c1CCC(=O)NC1CC(O)C(CO)C1` (centres undefined), the “% Inhibition” value is listed as -10% and the Z score worked out at 1.51. As for `CC[C@H](C)NC(=O)Cc1cccc(N)c1`, the “% Inhibition” value stood at 9% and the Z score is reported as -1.64. In the same order, the values of `CCOc1ccc(-c2nc(CN3C(=O)c4ccccc4CS3(=O)=O)cs2)cc1OC` are -10% and 1.36.

`COc1ccc(N2C(=O)CN(C(=O)c3ccccc3)CC23CCCC3)cc1`: the “% Inhibition” value amounted to 9% and the Z score was -1.3.

For `COc1ccc(CN2CC[C@@]3(CCCN(C4CCCCC4)C3=O)C2)cc1O`, the “% Inhibition” value is on record as -7% and the Z score was 1.12. For `O=C(c1ccoc1)N1CCC(S(=O)(=O)N2CCCCC2)CC1`, in that order: -14% and 1.49. In the same order, the values of `CCC(=O)NCCNC(=O)c1ccco1` are 35% and -0.69. In the same order, the values of `CC(C)CCNC(=O)c1c(OCC2CC2)cc(=O)n2c1CCOCC2` are -7% and 0.87. For the molecule `Cc1cc(C)nc(CNC(=O)Nc2cc(S(C)(=O)=O)ccc2C)n1`, the “% Inhibition” value came to 1% and the Z score is -0.11.

On to `Cc1ccccc1C1(CNC(=O)N(C)Cc2ccccc2O)CCOCC1`, for which the “% Inhibition” value is 0% and the Z score is reported as 0.04. In the same order, the values of `CCCn1cc(S(=O)(=O)NCCc2noc(C(C)C)n2)cn1` are -4% and 0.81.

For the molecule `CCC(=O)Nc1ccc(N2CCN(C(=O)c3cccc(F)c3)CC2)c(C(=O)N2CCCCC2)c1`, the “% Inhibition” value is recorded as -5% and the Z score is 0.5.
